This passage reports binding results from PMC3187806.

Sequences of proteins named here, by UniProt entry; tags and fusion partners are left off. A change or cut given only in a name is not applied to a line headed by its entry. A line that says so, or that is headed by a name, gives the form on record, which may keep a tag or linker.
UniProt Q06609: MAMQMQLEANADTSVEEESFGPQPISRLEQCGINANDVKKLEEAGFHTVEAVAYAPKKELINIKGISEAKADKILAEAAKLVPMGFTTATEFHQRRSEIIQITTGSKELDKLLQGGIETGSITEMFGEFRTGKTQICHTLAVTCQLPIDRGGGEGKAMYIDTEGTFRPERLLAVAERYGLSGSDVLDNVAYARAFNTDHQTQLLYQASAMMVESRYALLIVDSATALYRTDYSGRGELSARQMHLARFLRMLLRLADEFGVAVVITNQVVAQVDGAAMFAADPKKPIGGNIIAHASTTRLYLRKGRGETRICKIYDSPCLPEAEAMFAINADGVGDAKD
UniProt P29590: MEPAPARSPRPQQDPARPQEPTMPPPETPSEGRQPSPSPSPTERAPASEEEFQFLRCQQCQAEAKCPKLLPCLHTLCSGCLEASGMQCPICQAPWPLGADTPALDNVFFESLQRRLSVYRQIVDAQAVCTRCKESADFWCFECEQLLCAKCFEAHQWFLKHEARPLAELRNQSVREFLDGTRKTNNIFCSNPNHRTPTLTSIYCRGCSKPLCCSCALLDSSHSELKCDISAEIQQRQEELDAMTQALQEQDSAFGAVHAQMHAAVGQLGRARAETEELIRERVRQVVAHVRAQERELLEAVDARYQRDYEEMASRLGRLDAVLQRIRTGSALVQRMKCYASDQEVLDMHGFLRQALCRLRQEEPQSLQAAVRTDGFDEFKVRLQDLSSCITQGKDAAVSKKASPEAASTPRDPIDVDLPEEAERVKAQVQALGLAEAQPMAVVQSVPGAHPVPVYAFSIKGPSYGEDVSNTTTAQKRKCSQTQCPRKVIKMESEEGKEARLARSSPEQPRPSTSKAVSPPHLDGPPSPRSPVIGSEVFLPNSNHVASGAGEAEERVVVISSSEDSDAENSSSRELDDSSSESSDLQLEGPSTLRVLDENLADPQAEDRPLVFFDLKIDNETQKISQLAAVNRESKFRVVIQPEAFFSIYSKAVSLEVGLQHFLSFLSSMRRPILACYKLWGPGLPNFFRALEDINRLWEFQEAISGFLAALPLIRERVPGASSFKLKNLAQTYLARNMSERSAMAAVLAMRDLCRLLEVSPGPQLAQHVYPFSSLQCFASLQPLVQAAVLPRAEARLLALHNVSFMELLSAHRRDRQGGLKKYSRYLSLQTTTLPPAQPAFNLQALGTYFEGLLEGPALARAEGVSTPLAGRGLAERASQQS
Flag-tagged PML isoform V (P29590-2, form named): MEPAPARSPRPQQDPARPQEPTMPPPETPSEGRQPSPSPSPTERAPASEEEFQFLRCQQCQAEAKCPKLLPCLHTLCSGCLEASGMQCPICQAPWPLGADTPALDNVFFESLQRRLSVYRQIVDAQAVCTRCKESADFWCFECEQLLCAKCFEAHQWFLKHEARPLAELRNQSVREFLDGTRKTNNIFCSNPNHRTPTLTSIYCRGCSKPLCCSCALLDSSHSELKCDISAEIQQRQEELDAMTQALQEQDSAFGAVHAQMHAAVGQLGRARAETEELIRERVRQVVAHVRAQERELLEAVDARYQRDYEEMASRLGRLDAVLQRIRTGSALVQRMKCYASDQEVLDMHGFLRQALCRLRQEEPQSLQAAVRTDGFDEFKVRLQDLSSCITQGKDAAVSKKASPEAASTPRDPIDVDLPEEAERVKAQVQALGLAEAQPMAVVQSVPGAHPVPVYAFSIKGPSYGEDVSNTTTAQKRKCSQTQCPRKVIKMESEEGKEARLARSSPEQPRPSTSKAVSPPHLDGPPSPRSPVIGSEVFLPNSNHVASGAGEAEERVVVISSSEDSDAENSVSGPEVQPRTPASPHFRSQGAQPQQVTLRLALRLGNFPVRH

Assay [1] deals with Rad51 (human (endogenous in U2OS/T, U2OS and BJ/tert LT)) (UniProt Q06609). Kind of assay: condition: only U2OS cells without LT and without a DNA damaging agent; co-IP; endogenous Rad51 immunoprecipitated from lysates of untreated U2OS cells (no LT) transfected with Flag-PML I-VI for 48 h; Flag immunoblot. (In general: A western blot detects proteins with antibodies after separation by electrophoresis.)

For assay [2] the target is unchanged. The experiment in a line: co-IP; endogenous Rad51 immunoprecipitated (rabbit polyclonal antibody) from lysates of U2OS/T cells (stably expressing SV40 LT) transfected with Flag-PML I to VI; Flag immunoblot; lysis in 0.5 M NaCl buffer diluted with an equal volume of 0.05 M NaCl buffer, 4°C, washes with 150 mM NaCl.
Assay [3] has the same target. The experiment in a line: co-IP; BJ/tert LT cell lysates immunoprecipitated with GFP (negative control), Rad51 or PML antibody; PML immunoblot; endogenous proteins.

No constants are given. Whether binding was seen depends on the method and setting. Binding seen in cells or lysates may run through a third protein. Some binding calls cover weakened binding; strength is not graded here.

As for “Flag-tagged PML isoform V (from UniProt P29590-2 1-611)”, the binding result in assay [1] is “no binding”; in assay [2], “binds”.

For the substance “promyelocytic leukemia protein (PML), endogenous (from UniProt P29590 1-882)”, the binding entry in assay [3] is reported as “binds”. On to “Flag-tagged PML isoform I (from UniProt P29590-1 1-882)”, for which the binding result in assay [1] is “no binding”; in assay [2], “binds weakly”.
